Test results reported in PubChem BioAssay AID624170 (National Center for Advancing Translational Sciences (NCATS), 2012).
Hit rate of the full screen: of about 410,000 compounds, about 850 (0.21%) were called active. Inconclusive means that the source gave no clear call. Such entries were picked first, then a sample of the others. Calls come from the whole dose curve; as a rule, active = well fitted inhibition curve with a large enough effect; inconclusive = small, poorly fitted or top-dose-only effect, or another doubt; inactive = no such curve, though single readings can be large or run the other way. No potency is given beside an inconclusive call; the fits are too rough.

These compounds were tested against Glutaminase kidney isoform, mitochondrial (Homo sapiens) (UniProt O94925) (assay: qHTS for Inhibitors of Glutaminase (GLS)). Details: GLS enzymatic activity, qHTS titration; series mostly up to 45.5 µM.
Chain of UniProt O94925 (O94925 whole entry, looked up, canonical isoform): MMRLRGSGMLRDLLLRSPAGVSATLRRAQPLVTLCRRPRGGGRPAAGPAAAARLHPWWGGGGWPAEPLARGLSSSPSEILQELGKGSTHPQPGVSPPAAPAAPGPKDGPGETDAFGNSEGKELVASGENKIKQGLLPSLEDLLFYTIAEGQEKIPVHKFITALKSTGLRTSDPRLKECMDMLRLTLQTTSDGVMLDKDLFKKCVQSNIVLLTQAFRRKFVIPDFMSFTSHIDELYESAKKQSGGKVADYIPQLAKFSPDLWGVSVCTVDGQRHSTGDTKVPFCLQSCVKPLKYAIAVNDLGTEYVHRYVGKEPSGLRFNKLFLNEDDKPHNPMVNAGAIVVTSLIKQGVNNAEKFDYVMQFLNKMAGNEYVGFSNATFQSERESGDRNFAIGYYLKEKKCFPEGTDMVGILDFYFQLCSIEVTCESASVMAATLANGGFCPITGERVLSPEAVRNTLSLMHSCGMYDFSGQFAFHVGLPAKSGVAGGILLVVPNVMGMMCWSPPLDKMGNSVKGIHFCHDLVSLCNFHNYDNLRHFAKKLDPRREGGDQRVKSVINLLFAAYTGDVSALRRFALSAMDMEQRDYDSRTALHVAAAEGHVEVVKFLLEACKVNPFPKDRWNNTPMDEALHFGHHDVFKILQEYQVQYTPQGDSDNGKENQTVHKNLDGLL
Procedure, shortened: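 Read-out is an Amplex red fluorescence increase coupled through glutamate oxidase and HRP, measured before and after 30 min room-temperature incubation. hKGA is in 45 mM KH2PO4 (pH 8.2) with 0.02% Tween-20; glutamine added as 1mM solution.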
Potency is the fitted concentration of half-maximal effect; tags give direction and shape of the fitted curve.

Compound	Potency
Cc1[nH]c2ccc(C(C)C)cc2c1CC(=O)O	inconclusive [inhibitor, partial curve]
COc1ccc(CCNC(=O)COc2ccc([N+](=O)[O-])cc2)cc1	inconclusive [inhibitor, single point]
CC1(C)C2CCC(CN)C1C2 (stereo unspecified)	inconclusive [inhibitor, single point]
CCOC(=O)CNC(=O)N(C)[C@H]1C[C@H]2c3[nH]c4ccccc4c3CCN2C[C@H]1[C@H](C)O	inconclusive [inhibitor, partial curve, poor fit]
COc1cc(C(=O)NC(C)c2ccc3ccccc3c2)cc(Cl)c1O (stereo unspecified)	inconclusive [inhibitor, single point]
COCCN(CCOC)C(=O)C1CCN(c2ccc(S(=O)(=O)N3CCOCC3)cc2[N+](=O)[O-])CC1	inactive
CC(C)(C)Cc1nnc(NC(=O)c2ccc3c(c2)OCO3)s1	inconclusive [inhibitor, single point]
CSc1cccc(NC(=O)c2nnn(CC(=O)Nc3cc(C)cc(C)c3)c2N)c1	inconclusive [inhibitor, single point]
COc1ccc(-c2nc(-c3cccs3)c(-c3cccs3)[nH]2)cc1OC	inactive
COCCNC(=O)C(=O)Nc1cccc(Br)c1	inconclusive [inhibitor, single point]
C=Cc1ccc(Cn2c(C)c(C(=O)NCc3cccc(C)c3)sc2=O)cc1	inconclusive [inhibitor, single point]
O=C(CSc1nnc(-c2cccnc2)s1)Nc1cccc(C(=O)O)c1	inactive
O=C(NCCCc1ccccc1)c1cc(COc2ccc(F)cc2Cl)on1	inactive
COc1ccc(C(=O)NNC(=S)NC(=O)c2ccc(Br)o2)cc1OC	inconclusive [inhibitor, single point]
COc1cc(C(c2c(C(=O)O)[nH]c3ccccc23)c2c(C(=O)O)[nH]c3ccccc23)ccc1OCc1ccccc1	inconclusive [inhibitor, single point]
Cc1ccc(C)c(NCC(O)c2ccccc2)c1 (stereo unspecified)	inconclusive [inhibitor, partial curve, poor fit]
CCOc1ccc(N=C(C)Nc2ccc(OCC)cc2)cc1	inactive
Cc1ccc(N2C(=O)C3ON(c4ccccc4)C(c4ccncc4)C3C2=O)cc1 (stereo unspecified)	inconclusive [inhibitor, single point]
O=C(O)CC/C(=N\Nc1ccc([N+](=O)[O-])cc1S(=O)(=O)N1CCOCC1)c1cccs1	inconclusive [inhibitor, partial curve]
COc1cccc(-n2c(SCC(=O)NC3CCCCC3)nc3n[nH]c(C)c3c2=N)c1	active: 10 µM
Clc1nssc1=Nc1ccc(Br)cc1	inconclusive [inhibitor, single point]
Cn1c(N2CCCC2)nc2c1c(=O)n(Cc1ccc(Cl)cc1)c(=O)n2C	active: 12.6 µM

Compound	Potency
O=C(NCc1cccs1)c1nc2c(nnn2Cc2ccccc2Cl)c(=O)[nH]1	inconclusive [inhibitor, single point]
Cc1ccoc1C(=O)NCc1occc1C(=O)O	inconclusive [inhibitor, single point]
Cc1ccccc1N(C(=O)c1csnn1)C(C(=O)NC(C)(C)C)c1cccs1 (stereo unspecified)	inconclusive [inhibitor, single point]
CCN(CC)CCNC(C(=O)Nc1cccc(C(C)=O)c1)c1ccccc1 (stereo unspecified)	inconclusive [inhibitor, single point]
O=C(NCc1ccccc1OC(F)(F)F)C1CCC(=O)N(Cc2ccccn2)C1 (stereo unspecified)	inconclusive [inhibitor, single point]
Oc1ccc(/C=N/N(Cc2ccccc2)c2ccccc2)c(O)c1O	inconclusive [inhibitor, single point]
CC(C)=CCC12Oc3cc(O)ccc3C1(O)Oc1cc(O)c([C@H]3C=C(C)CC(c4ccc(O)cc4O)[C@H]3C(=O)c3ccc(O)cc3O)c(O)c1C2=O (stereo partly specified)	inactive
CCCc1cc(-c2n[nH]c(=S)n2CC(C)C)cs1	inconclusive [inhibitor, partial curve]
CCCC1=[N+](CC(=O)c2ccc(Br)cc2)CCn2cccc21	inconclusive [inhibitor, partial curve, poor fit]
COC(=O)[C@]12CCCCC=C1N(Cc1ccc(Cl)cc1Cl)C(=O)[C@H](CC(=O)N1CCSCC1)C2	inactive
Cc1nn(C)c(C(=O)N/N=C/c2cccc(Oc3ccccc3)c2)c1Br	inconclusive [inhibitor, single point]
O=C(Nc1ccc2c(c1)Cc1cc([N+](=O)[O-])ccc1-2)C(F)(F)F	inactive
Cc1csc2ncc(C(=O)NCc3ccccc3Cl)c(=O)n12	inconclusive [inhibitor, partial curve]
Cn1nnc2c(N3CCN(c4ccccc4F)CC3)ncnc21	inactive
O=C(O)c1cccc(NS(=O)(=O)c2ccc(-c3ccc(S(=O)(=O)Nc4cccc(C(=O)O)c4)cc3)cc2)c1	inconclusive [inhibitor, single point]
Cc1cc(NC(=O)c2ccc(-c3ccc(F)c(Cl)c3)o2)no1	inactive
COc1cc(C(=O)NNC(=S)Nc2ccc(S(N)(=O)=O)cc2)cc(OC)c1OC	inconclusive [inhibitor, single point]
O=C(Nc1ccccc1Cl)/C(Cl)=C(\Cl)S(=O)c1ccccc1 (stereo unspecified)	active: 1.78 µM
COc1cc(/C=N/NC(=O)CCc2n[nH]c(=O)[nH]c2=O)ccc1O	inconclusive [inhibitor, single point]
O=C(NNS(=O)(=O)c1ccccc1)c1cccc([N+](=O)[O-])c1	inconclusive [inhibitor, partial curve]
O=C(O)c1cc(S(=O)(=O)Nc2cccc3ccccc23)c(Cl)cc1Cl	inconclusive [inhibitor, partial curve, poor fit]
N#Cc1nc(/C=C/c2ccccc2)oc1NCCCN1CCOCC1	inconclusive [inhibitor, single point]

Compound	Potency
CCOc1cc(C2NC(=S)NC(C)=C2C(=O)Nc2ccccc2)ccc1O (stereo unspecified)	inconclusive [inhibitor, partial curve]
COc1cccc(-c2noc(C3CCCN(C(=O)CC(C)(C)C)C3)n2)c1 (stereo unspecified)	inactive
CC(C)C[C@@H](CNCC(=O)[C@H](CC(C)C)NC(=O)c1[nH]cnc1C(=O)N[C@@H](C)CN)NC(=O)c1nc[nH]c1C(=O)N[C@@H](C)C(=O)O	inactive
Cc1ccc(NC(=O)CN(C)C(=O)c2cc(-c3ccco3)nc3ccccc23)cc1	inconclusive [inhibitor, single point]
N#Cc1ccc(CN2CCN(CC(=O)NCCc3ccc(Cl)cc3Cl)CC2)cc1	inactive
CCOc1ccc(OCCn2c(=S)[nH]c3c(N)ncnc32)cc1	inconclusive [inhibitor, partial curve, poor fit]
COc1cccc(CNC(=O)CCc2c(C)c3cc4c(C)c(C)oc4cc3oc2=O)c1	inactive
CC(=O)N=c1sc2c3ccccc3ccc2n1C	inconclusive [inhibitor, single point]
O=C(CN1C(=O)S/C(=C\c2ccc(O)c([N+](=O)[O-])c2)C1=O)Nc1ccc(N2CCOCC2)cc1	inconclusive [inhibitor, single point]
COc1cc(C(C#N)N2N=C(c3ccccc3)CC2c2ccccc2)ccc1O (stereo unspecified)	inactive
CCOC(=O)c1cn(Cc2cccc(Cl)c2)nn1	inactive
Oc1c(Br)cc(C2N=C(c3ccccc3)NO2)cc1Br (stereo unspecified)	inconclusive [inhibitor, single point]
Cc1cccc(Nc2nc(-c3ccc(O)c(O)c3)cs2)n1	inconclusive [inhibitor, single point]
COc1ccc(C(C)C)cc1-c1cc(C(=O)NCc2cccc(C(F)(F)F)c2)[nH]n1	inactive
CC(=O)Nc1ccc(S(=O)(=O)Nc2nc3ccccc3nc2Nc2ccc(O)cc2)cc1	inconclusive [inhibitor, single point]
COc1ccc(S(=O)(=O)Nc2c(C(=O)O)[nH]c3ccc(OC)cc23)c(OC)c1	inconclusive [inhibitor, single point]
OCCNc1nc(Nc2ccc(Br)cc2)nc2ccccc12	inconclusive [inhibitor, single point]
CC(=O)C1=C(c2cccc([N+](=O)[O-])c2)N(C(C)=O)n2c(C)nnc2S1	inconclusive [inhibitor, partial curve]
O=C(NC(Cc1ccccc1)C(=O)O)/C(=C\c1ccco1)NC(=O)c1ccccc1 (stereo unspecified)	inconclusive [inhibitor, single point]
CN(C)C(=O)c1c(NC(=O)c2ccccc2)sc2c1CCC2	inconclusive [inhibitor, partial curve, poor fit]
CCn1c(=O)c(C(=O)CN2CCCc3ccccc32)c(N)n(Cc2ccccc2)c1=O	inconclusive [inhibitor, single point]
Cc1c(C)c2c(OCC(=O)NCC(=O)NCC(=O)O)cc3c(c2oc1=O)CCC(C)(C)O3	inconclusive [inhibitor, single point]
